Experimental findings from article PMC7819943, “Rice protein-binding microarrays: a tool to detect cis-acting elements near promoter regions in rice” are described below.

This is one part of the list.

The target of the experiment is T1, OsWOX13 (Oryza sativa, UniProt Q5QMM3 1-267).
T1 sequence: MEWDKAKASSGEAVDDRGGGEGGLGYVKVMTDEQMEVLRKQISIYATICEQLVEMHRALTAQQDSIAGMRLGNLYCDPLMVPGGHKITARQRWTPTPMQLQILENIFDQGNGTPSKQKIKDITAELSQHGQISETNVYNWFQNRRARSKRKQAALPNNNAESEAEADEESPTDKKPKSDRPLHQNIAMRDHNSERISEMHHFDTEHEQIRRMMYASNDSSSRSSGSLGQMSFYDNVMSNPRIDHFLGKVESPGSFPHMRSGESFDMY
Put plainly: protein-binding microarray (RPBM); PBS, 2% BSA, 51.3 ng/ul salmon testes DNA, 50 uM zinc acetate, 200 nM TF, 25 C, 1 h; high values mean tight binding. Particulars: protein: recombinant; tags: N-terminal polyhistidine and DsRed monomer fusion (pET32a); label: CyDye5-dUTP incorporated in the synthesized complementary strand; 3' TTTTT single-stranded linker to array surface; dsDNA, one strand shown. A digest of the protocol: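 The binding signal is fluorescence intensity per feature, in arbitrary units, read on an Axon 4000B scanner. Polyhistidine- and DsRed-tagged transcription factors (N-terminal fusions) from E. coli BL21-CodonPlus were purified on Ni–NTA and applied at 200 nM for 1 h at 25 °C to a double-stranded, BSA-blocked custom Agilent array in buffer with 50 µM zinc acetate.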
“GGTAATTTGGGTACAGATAGTACTCTGTTGCACCAATCTGCGGAGTCACCTAGTGCAG”: the binding signal is 12600 fluorescence intensity (a.u.).

With “TGTCAATATGGGTGAATTGACATGCTATGATCAGGCAAAGCGGAGTCACCTAGTGCAG”, the binding signal is 9900 fluorescence intensity (a.u.).

As to “ACAATAATTCTGAAGTAATTAGGAGTACGACTCTCGTCCCCGGAGTCACCTAGTGCAG”, the binding signal is 13900 fluorescence intensity (a.u.).

Regarding “AATTTCTGATTGTTTGTCAGTTCAGCGTTGATGCTGTAATCGGAGTCACCTAGTGCAG”, the binding signal is 16400 fluorescence intensity (a.u.).

Regarding “TTGTTGACAATCACGATTCATGACAAAAGAAGATTGAGAGCGGAGTCACCTAGTGCAG”, the binding signal was 13600 fluorescence intensity (a.u.).

“ATTAATTTAAGGAGTTAATTTATTAGGTGAAAATTCCTTACGGAGTCACCTAGTGCAG”: the binding signal was 20200 fluorescence intensity (a.u.).

As to “TAGTTAATTTAATATAGTCAATTCATACAATAGCTACCTACGGAGTCACCTAGTGCAG”, the binding signal is 19500 fluorescence intensity (a.u.).

As for “ACTCAAACTTGATATGGGTTAATTAGATCAACAAATTATGCGGAGTCACCTAGTGCAG”, the binding signal is 8160 fluorescence intensity (a.u.).

On to “ACCCTCCTTAATTATTACGGTCGACCATATTACCCTCCTACGGAGTCACCTAGTGCAG”, for which the binding signal is 7940 fluorescence intensity (a.u.).

On to “TGATCTAGAATTAAATTGATTGCCATTATAATGGGATCTCCGGAGTCACCTAGTGCAG”, for which the binding signal is 37900 fluorescence intensity (a.u.).

Turning to “TCATGAAATTAATAGGATGCCACGTCGACTTGGTTGTTCCCGGAGTCACCTAGTGCAG”, the binding signal is 3510 fluorescence intensity (a.u.).

For “TATTGTAAATCTACAGGTGTAAGGTGGCGTATCATAAGATCGGAGTCACCTAGTGCAG”, the binding signal is 3640 fluorescence intensity (a.u.).

On to “TGGTAAATTTCCAATTACAAACGCGATCACATACAGTCGACGGAGTCACCTAGTGCAG”, for which the binding signal was 29300 fluorescence intensity (a.u.).

As for “GGAAAATAAATTATTAAATGGAATGATAAAAGAAAACAGGCGGAGTCACCTAGTGCAG”, the binding signal was 21200 fluorescence intensity (a.u.).

On to “TCAGATCTTGAATCAATTAGCTACTGCTGTTGTGAAATTGCGGAGTCACCTAGTGCAG”, for which the binding signal is 7150 fluorescence intensity (a.u.).

Regarding “ATCAAATTTATATATGAAAATAACATTATTTATAACACCACGGAGTCACCTAGTGCAG”, the binding signal is 5450 fluorescence intensity (a.u.).

Turning to “CATAAATTTCTTACTCATGAAAACACACTCCCCTTCTTTTCGGAGTCACCTAGTGCAG”, the binding signal is 4600 fluorescence intensity (a.u.).

In the case of “ACTAAATAAATAATTCCATGTCGATTATGACACTTGAGTTCGGAGTCACCTAGTGCAG”, the binding signal was 3800 fluorescence intensity (a.u.).

For the sequence “TTTCAAATTAAATGGCATTGTTTTGTAGTTATATAATGGACGGAGTCACCTAGTGCAG”, the binding signal was 11100 fluorescence intensity (a.u.).

“AGAATTAAAACTCAATCAATCATACGTTAATAGCATATTGCGGAGTCACCTAGTGCAG”: the binding signal is 31800 fluorescence intensity (a.u.).

For “GCCTAACATGTATTGACCAAATAATCATATTTGGTAGGCACGGAGTCACCTAGTGCAG”, the binding signal is 5620 fluorescence intensity (a.u.).

Turning to “ACCTTTTGTTAACATGTTTACTGATTGTAGATGTGGGACTCGGAGTCACCTAGTGCAG”, the binding signal was 11900 fluorescence intensity (a.u.).

Regarding “ACCCTGCGGATTAACAGAGTAAACTGCAACAAACCACGCGCGGAGTCACCTAGTGCAG”, the binding signal was 3640 fluorescence intensity (a.u.).

Turning to “CATCAATTGATGATCTGACTGTCTGAGACGACCATGAAATCGGAGTCACCTAGTGCAG”, the binding signal is 31500 fluorescence intensity (a.u.).

As to “AGATAGGTCCTTAATTTGCAATTGCCCCGCTCTGGTCTGGCGGAGTCACCTAGTGCAG”, the binding signal was 4600 fluorescence intensity (a.u.).

Regarding “CAGATGGATTCTATAATTTGTTTTATTATTAGTCTACATTCGGAGTCACCTAGTGCAG”, the binding signal is 5670 fluorescence intensity (a.u.).

Consider “ATAATTTAATTTTGACCAAACTTAAAATGTCTTATAACCTCGGAGTCACCTAGTGCAG”, for which the binding signal is 26700 fluorescence intensity (a.u.).

On to “ATATAATATATATTTATAGTTAACTATTATATAAATAAGACGGAGTCACCTAGTGCAG”, for which the binding signal was 4120 fluorescence intensity (a.u.).

Turning to “GCAAGTAACTTGCTGTAATTAATTACTCATCCACTCAAAACGGAGTCACCTAGTGCAG”, the binding signal was 11500 fluorescence intensity (a.u.).

With “CGAACTTATAATTACTGTGTTAAGTAGTGGCCCCTACAGCCGGAGTCACCTAGTGCAG”, the binding signal is 4430 fluorescence intensity (a.u.).

On to “CGTTGACAACAGTTAGATAGGCTACCCCAAATATTGTACTCGGAGTCACCTAGTGCAG”, for which the binding signal is 23800 fluorescence intensity (a.u.).

With “AATTAATTAACTAAATGCTTAAAGCTAGCCATGCTTTGGGCGGAGTCACCTAGTGCAG”, the binding signal was 35300 fluorescence intensity (a.u.).

“GTATAGTGATTGGTTTGGTCGGAAATACATGACGTCATAACGGAGTCACCTAGTGCAG”: the binding signal was 26400 fluorescence intensity (a.u.).

Take “TGTCTGGTGAGTTAATTAATCAGTGCTGCTCGAAGTAGACCGGAGTCACCTAGTGCAG”: the binding signal was 5930 fluorescence intensity (a.u.).

“TTATCTATCAATAACACTTTTCAACACTAGATTAATATCCCGGAGTCACCTAGTGCAG”: the binding signal was 3710 fluorescence intensity (a.u.).

As for “CACTACAAATTAGGTGGATCTCCTCTTCTGAAGATCACACCGGAGTCACCTAGTGCAG”, the binding signal is 3340 fluorescence intensity (a.u.).

Consider “TGTGAATATGATTAGCTCGTCCTACTGCGAGCTAGACACGCGGAGTCACCTAGTGCAG”, for which the binding signal is 12000 fluorescence intensity (a.u.).

On to “ACAAATTAAACATAAGCAAAACTTCGTAATATTCAGTTAGCGGAGTCACCTAGTGCAG”, for which the binding signal was 16600 fluorescence intensity (a.u.).

“TTGGATTAATTGAATAGCACGGAACGAAAGAATTCACATCCGGAGTCACCTAGTGCAG”: the binding signal was 12300 fluorescence intensity (a.u.).

In the case of “CTTTTAATTTGATTTTGATTCTTCATCCACAATGCATGATCGGAGTCACCTAGTGCAG”, the binding signal was 44400 fluorescence intensity (a.u.).

For the sequence “ATGTTATTACATGATTAAAAGAAGCCAGTATAAGAGAGGTCGGAGTCACCTAGTGCAG”, the binding signal was 3240 fluorescence intensity (a.u.).

Consider “CGACTTGTACGATGATTGAGCAGTTGGGCATGGAATGTTACGGAGTCACCTAGTGCAG”, for which the binding signal was 9830 fluorescence intensity (a.u.).
